Test results reported in publication PMC6451091.
This is one part of the list. For some of these results: At the low end of the ranking, values are background and their order means little. For some of these results: Measured with an extract: partners may take part in the binding.

How the values were obtained:
PU.1 (IVT) = PU.1 (IVT) (UniProt P17947); experiment: protein-binding microarray (PBM); details: 20 mM HEPES pH 7.9, 100 mM NaCl, 1 mM DTT, 0.2 mg/mL BSA, 0.02% Triton X-100, 2% milk, 0.4 mg/mL salmon testes DNA; 1 h; temperature not stated; high values mean tight binding; double strand, one strand shown; sequences stand for … in GCCTAGCAC…GTGCTAGGTCTTGATTCGCTTGACGCTGCTG
[1] = biological target: PU.1 (endogenous, THP-1 nuclear extract) (UniProt P17947); experiment: nuclear extract protein-binding microarray (nextPBM); details: 20 mM HEPES pH 7.9, 100 mM NaCl, 1 mM DTT, 0.2 mg/mL BSA, 0.02% Triton X-100, 2% milk, 0.4 mg/mL salmon testes DNA; 1 h; temperature not stated; high values mean tight binding; double strand, one strand shown; sequences stand for … in GCCTAGCAC…GTGCTAGGTCTTGATTCGCTTGACGCTGCTG
[2] = biological target: T1, FLI1 (endogenous, THP-1 nuclear extract) (UniProt Q01543); experiment: as above; details: 20 mM HEPES pH 7.9, 100 mM NaCl, 1 mM DTT, 0.2 mg/mL BSA, 0.02% Triton X-100, 2% milk, 0.4 mg/mL salmon testes DNA; 1 h; temperature not stated; high values mean tight binding; double strand, one strand shown; sequences stand for … in GCCTAGCAC…GTGCTAGGTCTTGATTCGCTTGACGCTGCTG
T1 sequence: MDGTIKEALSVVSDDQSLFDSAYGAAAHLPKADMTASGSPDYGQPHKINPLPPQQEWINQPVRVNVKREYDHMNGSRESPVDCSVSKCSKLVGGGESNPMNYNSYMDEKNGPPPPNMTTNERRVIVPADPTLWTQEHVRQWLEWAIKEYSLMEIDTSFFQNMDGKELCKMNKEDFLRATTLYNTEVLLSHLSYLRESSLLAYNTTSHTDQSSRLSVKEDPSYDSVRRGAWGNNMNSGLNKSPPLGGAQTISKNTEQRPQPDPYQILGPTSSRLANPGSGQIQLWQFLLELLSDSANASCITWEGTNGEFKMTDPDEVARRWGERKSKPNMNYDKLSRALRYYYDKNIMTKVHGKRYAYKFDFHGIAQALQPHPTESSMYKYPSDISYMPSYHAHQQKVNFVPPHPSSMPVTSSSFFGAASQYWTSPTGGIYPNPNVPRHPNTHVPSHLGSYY

[3] = biological target: T2, IRF8 (endogenous, THP-1 nuclear extract) (UniProt Q02556); experiment: nextPBM; details: 20 mM HEPES pH 7.9, 100 mM NaCl, 1 mM DTT, 0.2 mg/mL BSA, 0.02% Triton X-100, 2% milk, 0.4 mg/mL salmon testes DNA, 1 h; temperature not stated; double strand, one strand shown; sequences stand for … in GCCTAGCAC…GTGCTAGGTCTTGATTCGCTTGACGCTGCTG
T2 sequence: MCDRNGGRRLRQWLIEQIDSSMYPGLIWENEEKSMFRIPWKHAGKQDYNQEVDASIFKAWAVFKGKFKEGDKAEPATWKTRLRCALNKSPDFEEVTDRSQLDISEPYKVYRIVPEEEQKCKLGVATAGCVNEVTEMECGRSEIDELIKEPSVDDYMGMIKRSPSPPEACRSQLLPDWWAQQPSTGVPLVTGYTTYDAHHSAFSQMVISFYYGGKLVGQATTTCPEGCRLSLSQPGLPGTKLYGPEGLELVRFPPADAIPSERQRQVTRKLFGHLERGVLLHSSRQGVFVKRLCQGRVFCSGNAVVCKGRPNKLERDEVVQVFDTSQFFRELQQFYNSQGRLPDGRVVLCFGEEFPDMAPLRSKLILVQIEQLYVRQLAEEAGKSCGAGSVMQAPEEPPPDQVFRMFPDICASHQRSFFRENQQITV

[4] = biological target: PU.1 (endogenous, THP-1 nuclear extract) (UniProt P17947); experiment: nextPBM; details: 20 mM HEPES pH 7.9, 100 mM NaCl, 1 mM DTT, 0.2 mg/mL BSA, 0.02% Triton X-100, 2% milk, 0.4 mg/mL salmon testes DNA, 1 h; temperature not stated; double strand, one strand shown; sequences stand for … in GCCTAGCAC…GTGCTAGGTCTTGATTCGCTTGACGCTGCTG

Sequence	binding signal (PU.1 (IVT)) [z-score]	binding signal [1] [z-score]	binding signal [2] [z-score]	binding signal [3] [z-score]	binding signal [4] [z-score]
CAAGAAGGGAAGTGGATGCT	3.18	3.23	1.66		
GTAATGAGGAAGTAAATGCA	6.98	7	2.7		
GATAAGAGGAAGTCGTCTGT	5.99	6.57	3.13		
ATAAGGAGGAAGTGGCTGAA	5.13		3.22	-0.182	5.2
TAAAGAGGGAAGTGAATATT	5.18	4.79	2.24		
ATTTTGAGGAAGTGTAAAGT	6.34	6.67	2.5		
CAAAATGGGAAGTGAAGTCA	5.22	5.62	2.32		
